Measured values taken from PubChem BioAssay AID504333 (National Center for Advancing Translational Sciences (NCATS), 2011).
Screen size: about 360,000 compounds; about 16,000 (4.4%) were called active. Inconclusive means that the source gave no clear call. Such entries were picked first, then a sample of the others. The call rests on the fitted dose curve; in most records, active means well fitted inhibition curve with a large enough effect; inconclusive means small, poorly fitted or top-dose-only effect; inactive means no such curve, though single readings can be large or run the other way. Where the call is inconclusive, the potency comes from a doubtful curve fit.

Biological target: Bromodomain adjacent to zinc finger domain protein 2B (Homo sapiens) (UniProt Q9UIF8)
Assay: qHTS Assay for Inhibitors of BAZ2B; further: nearly all actives have a fitted effect of over 60% in size
Conditions: AlphaScreen BAZ2B-H3K14Ac peptide displacement; series mostly up to 114 µM
Summary of the method: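 BAZ2B (50 nM) with biotin-H3(5-23)K14Ac peptide (50 nM) in PBS pH 7.4, 0.01% Tween-20, preformed 30 min, then compound 30 min at room temperature; top concentration 110uM. AlphaScreen streptavidin donor/nickel chelate acceptor beads (10 ug/mL final), 20 min dark, signal read.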
Potency means the concentration at half of the fitted maximal effect; tags describe the fitted curve by direction and shape.

Chain of UniProt Q9UIF8 (Q9UIF8 whole entry, looked up, the tested form may be a part): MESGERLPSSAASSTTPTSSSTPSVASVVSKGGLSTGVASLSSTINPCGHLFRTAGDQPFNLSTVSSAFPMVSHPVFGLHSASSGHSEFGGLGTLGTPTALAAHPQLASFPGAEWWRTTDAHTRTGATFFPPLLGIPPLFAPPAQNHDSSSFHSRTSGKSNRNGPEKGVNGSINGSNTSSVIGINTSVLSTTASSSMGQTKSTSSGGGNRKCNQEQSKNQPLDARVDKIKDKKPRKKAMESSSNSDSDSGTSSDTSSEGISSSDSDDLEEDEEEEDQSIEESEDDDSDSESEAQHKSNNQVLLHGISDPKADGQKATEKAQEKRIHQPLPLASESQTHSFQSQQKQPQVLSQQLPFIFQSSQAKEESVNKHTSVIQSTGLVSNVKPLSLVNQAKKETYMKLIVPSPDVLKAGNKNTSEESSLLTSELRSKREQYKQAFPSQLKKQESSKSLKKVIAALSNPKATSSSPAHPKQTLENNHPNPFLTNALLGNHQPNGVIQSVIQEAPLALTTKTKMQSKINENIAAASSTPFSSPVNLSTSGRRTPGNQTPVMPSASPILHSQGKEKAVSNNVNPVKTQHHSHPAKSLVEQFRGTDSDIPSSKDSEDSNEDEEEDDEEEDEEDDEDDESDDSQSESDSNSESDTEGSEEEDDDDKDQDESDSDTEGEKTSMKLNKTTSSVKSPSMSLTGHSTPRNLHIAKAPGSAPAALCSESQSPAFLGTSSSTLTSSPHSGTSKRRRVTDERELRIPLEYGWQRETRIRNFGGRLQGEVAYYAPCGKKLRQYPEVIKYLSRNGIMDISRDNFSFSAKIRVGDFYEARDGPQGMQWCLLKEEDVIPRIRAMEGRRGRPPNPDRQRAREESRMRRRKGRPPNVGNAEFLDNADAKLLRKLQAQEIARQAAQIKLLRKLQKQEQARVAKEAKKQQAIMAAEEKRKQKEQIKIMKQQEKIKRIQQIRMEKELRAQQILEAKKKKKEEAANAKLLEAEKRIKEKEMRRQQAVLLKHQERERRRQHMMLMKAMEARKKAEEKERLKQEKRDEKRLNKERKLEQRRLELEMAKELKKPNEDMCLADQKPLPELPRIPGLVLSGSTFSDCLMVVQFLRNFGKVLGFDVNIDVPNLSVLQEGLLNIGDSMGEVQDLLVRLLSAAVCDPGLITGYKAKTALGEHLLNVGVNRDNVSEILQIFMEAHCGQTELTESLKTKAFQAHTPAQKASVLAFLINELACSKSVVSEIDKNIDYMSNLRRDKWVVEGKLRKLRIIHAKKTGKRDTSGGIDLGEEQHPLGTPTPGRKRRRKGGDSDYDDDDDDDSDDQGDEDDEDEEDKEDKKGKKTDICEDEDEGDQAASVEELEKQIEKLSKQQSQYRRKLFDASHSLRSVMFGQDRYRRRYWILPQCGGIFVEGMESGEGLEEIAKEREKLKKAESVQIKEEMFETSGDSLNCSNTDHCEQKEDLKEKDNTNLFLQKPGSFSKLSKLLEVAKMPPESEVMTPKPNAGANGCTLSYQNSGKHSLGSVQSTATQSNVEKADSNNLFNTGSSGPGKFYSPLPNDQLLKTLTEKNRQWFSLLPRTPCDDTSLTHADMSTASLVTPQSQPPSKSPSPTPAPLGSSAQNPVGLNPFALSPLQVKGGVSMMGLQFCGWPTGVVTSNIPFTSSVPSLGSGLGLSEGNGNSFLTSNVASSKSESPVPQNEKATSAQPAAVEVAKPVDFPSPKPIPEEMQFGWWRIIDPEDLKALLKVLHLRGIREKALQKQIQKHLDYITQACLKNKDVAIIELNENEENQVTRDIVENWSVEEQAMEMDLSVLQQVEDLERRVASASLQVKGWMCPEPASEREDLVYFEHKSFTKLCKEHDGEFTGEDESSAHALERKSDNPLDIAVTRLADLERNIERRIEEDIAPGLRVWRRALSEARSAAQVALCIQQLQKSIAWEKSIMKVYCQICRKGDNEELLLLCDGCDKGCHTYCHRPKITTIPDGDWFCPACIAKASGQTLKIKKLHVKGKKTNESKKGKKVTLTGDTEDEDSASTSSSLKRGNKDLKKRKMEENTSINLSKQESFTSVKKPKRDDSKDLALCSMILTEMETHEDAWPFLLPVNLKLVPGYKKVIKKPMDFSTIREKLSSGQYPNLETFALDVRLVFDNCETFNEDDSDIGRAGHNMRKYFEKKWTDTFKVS

Row | SMILES | Potency
1 | CC(=O)N1CCc2cc(Br)cc(S(=O)(=O)N3CCN(c4cccc(C)c4)C(C)C3)c21 (stereo not given) | inconclusive: 22.4 µM [inhibitor, full curve]
2 | CC(C)c1cc(C(=O)O)c2ccccc2n1 | inactive
3 | COc1ccc(-c2nnc(NC(=O)c3cccs3)s2)c(OC)c1 | inconclusive: 70.8 µM [inhibitor, single point]
4 | Oc1ccc(NCc2ccc(OCc3ccccc3Cl)cc2)cc1 | inconclusive: 15.8 µM [inhibitor, single point]
5 | Cn1c(SCC(=O)Nc2ccc3nc(SCC(=O)N4CCCC4)sc3c2)nnc1-c1ccccc1 | active: 56.2 µM
6 | CC(=O)c1c(C)[nH]c(C(=O)CN2C(=O)NC(C)(CCC(C)C)C2=O)c1C (stereo not given) | inconclusive: 70.8 µM [inhibitor, single point]
7 | O=C(/C(=C/O)N=Nc1ccccc1)c1ccncc1 | inconclusive: 89.1 µM [inhibitor, single point]
8 | Cc1ccc(C2C(C#N)=C(N)Oc3c2oc(CO)cc3=O)o1 (stereo not given) | inconclusive: 89.1 µM [inhibitor, single point]
9 | COc1ccc(CCNC(=O)CCS(=O)(=O)c2ccc(Br)cc2)cc1OC | inconclusive: 89.1 µM [inhibitor, single point]
10 | CCOc1cc(N2CCOCC2)c(OCC)cc1NC(=O)COC(=O)C1CCCN1S(=O)(=O)c1ccccc1F (stereo not given) | inactive
11 | N/C(=N\OCc1ccc([N+](=O)[O-])cc1)c1ccncc1 | inconclusive: 89.1 µM [inhibitor, single point]
12 | CCCC(=O)OCCNc1cc(Sc2nc3ccccc3[nH]2)c2nonc2c1[N+](=O)[O-] | inconclusive: 56.2 µM [inhibitor, partial curve]
13 | O=C(NC1CCCCC1)c1ccc(CSc2nc3cccnc3n2Cc2ccccc2F)cc1 | inactive
14 | COC(=O)c1sc(NC(=O)CSc2n[nH]c(N)n2)c(C(=O)OC)c1C | inactive
15 | CCOC(=O)c1c(S(=O)(=O)N2CCC(C(=O)N3CCN(c4cc(C)ccc4C)CC3)CC2)c(C)n(C)c1C | inconclusive: 35.5 µM [inhibitor, full curve]
16 | Cc1cc(=O)oc2cc(OCC(=O)NCCCn3ccnc3)ccc12 | inactive
17 | Cc1ccc(CN2CCN(Cc3cnn(-c4ccc(Cl)cc4)c3)CC2CCO)o1 (stereo not given) | inconclusive: 89.1 µM [inhibitor, single point]
18 | Cc1cc(C(C)(C)C)cc(C)c1Cn1c2[n+](c3ccc(C(F)(F)F)cc31)CCCCC2 | inactive
19 | O=C(NCCCN1CCOCC1)c1ccc2c(c1)N(Cc1cccc(F)c1)C(=O)c1ccccc1S2 | inconclusive: 79.4 µM [inhibitor, single point]
20 | Cc1ccc(C(=O)CNc2ccc(Cl)cc2)cc1 | inconclusive: 89.1 µM [inhibitor, single point]
21 | CCOc1cccc(C=Nc2cc(C)cc(C)c2O)c1O | inconclusive: 79.4 µM [inhibitor, single point]
22 | CC(C)N(C(=O)CSc1nc2ccccc2n1-c1ccccc1)C(C)C | inactive
23 | Cc1ccc(NC(=O)CCn2c(=O)[nH]c3ccsc3c2=O)cc1F | inactive

Row | SMILES | Potency
24 | Cc1cc(C)n2[nH]c(=O)c(N=Nc3ccccc3)c2n1 | inconclusive: 89.1 µM [inhibitor, single point]
25 | OC1CCN(Cc2ccc3ccccc3c2)CC1 | inconclusive: 79.4 µM [inhibitor, single point]
26 | COc1ccc(C2/C(=C(/O)c3ccccc3)C(=O)C(=O)N2C)c(OC)c1 (stereo not given) | inconclusive: 100 µM [inhibitor, single point]
27 | Cc1ccc(-n2cc(CN3CCC(O)(c4ccccn4)CC3)c(-c3ccc(F)cc3)n2)cc1 | inconclusive: 17.8 µM [inhibitor, full curve]
28 | Cc1cccc(C(=O)Nc2nnc(SCC(=O)Nc3ccc4c(c3)oc3ccccc34)s2)c1 | inconclusive: 89.1 µM [inhibitor, single point]
29 | COc1cc(N2CCCC2)c(OC)cc1/C=C(/C#N)c1cccc(F)c1 | active: 22.4 µM
30 | COC(=O)C(O)(NC(=O)c1ccncc1)C(F)(F)F (stereo not given) | inactive
31 | Cc1ccccc1NC(=S)N/N=C1\CC(C)(C)Oc2ccc(O)cc21 | inconclusive: 44.7 µM [inhibitor, partial curve]
32 | CN(C)/C=C1\NC(=S)N(c2ccc(Cl)cc2)C1=O | inconclusive: 89.1 µM [inhibitor, single point]
33 | CCn1c(SCC(=O)Nc2nccs2)nnc1-c1ccc(S(=O)(=O)N2CCCCCC2)cc1 | inactive
34 | O=C(NCCCn1ccnc1)C(=O)NCC1OCCN1S(=O)(=O)c1ccc(F)cc1 (stereo not given) | active: 6.31 µM
35 | CN(CC(=O)Nc1ccc(Cl)cc1)C(=O)CCc1ccccc1 | inactive
36 | CC(Oc1cccc(Cl)c1)C(=O)Nc1ccc(N2CCOCC2)cc1N1CCOCC1 (stereo not given) | inconclusive: 50.1 µM [inhibitor, partial curve]
37 | CN(Cc1c(F)cccc1Cl)C(=O)CNC(=O)c1ccc2c(c1)OCO2 | inconclusive: 79.4 µM [inhibitor, single point]
38 | Nc1nccc(/C=C/c2ccc(Cl)cc2)n1 | inactive
39 | NC(N)=N/N=C/c1cccc([N+](=O)[O-])c1O | inconclusive: 79.4 µM [inhibitor, single point]
40 | Cc1ccccc1N1C(S)=C(C#N)C(=O)NC12CCCCC2 | inactive
41 | C#CCOCCOCCOCCNc1nc(OC)nc(N2CCN(C(=O)[C@H](CCC(=O)O)n3cc(C(N)CO)nn3)CC2)n1 (stereo not given in full) | active: 79.4 µM
42 | COc1ccc(OC)c(S(=O)(=O)Nc2cc(C(=O)O)ccc2N2CC3CC(C2)c2cccc(=O)n2C3)c1 (stereo not given) | inactive
43 | CSc1ccc(N/N=C(/C#N)S(=O)(=O)C(C)(C)C)cc1 | inconclusive: 35.5 µM [inhibitor, partial curve]
44 | COc1ccc(OC)c(S(=O)(=O)N2CC=C(c3c(C)n(CC(=O)N4CCCC4)c4ccccc34)CC2)c1 | inconclusive: 25.1 µM [inhibitor, full curve]
45 | CCCC1(C(=O)OCC)NC(c2ccc(OC)cc2OC)C2C(=O)N(c3ccccc3)C(=O)C21 (stereo not given) | inactive
